Reference: the supplement of paper PMC11417369
The list shows a part of the results.

System: PfHDP1 homeodomain (GST-tagged)
Test: gcPBM binding intensity (ln(normalized median fluorescence intensity)); higher = stronger DNA binding
In short: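 DNA-binding domains from P. falciparum, fused to GST and produced in E. coli, were put on an Agilent 4 × 180k double-stranded probe array for 1 h in 1× PBS holding 1% milk, 0.2 mg/ml BSA, 0.5% salmon testes DNA and 0.03% Triton X-100. Probes were primer-extended, 36 bp long and drawn from intergenic genomic regions, with negative controls included. After Alexa488 anti-GST antibody detection and a 488 nm scan, binding intensity was set as the highest Masliner-normalised natural-log median intensity across replicate spots of either probe orientation.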

Row | Sequence | gcPBM binding intensity (ln)
1 | GAATATTCAACATAATGTACAAGTATTCATTTCTTT [XGTACX_site7860] | 6.3
2 | TAATAAACTTAAAAATGTACATATATTTATTATTAC [XGTACX_site4321] | 6.26
3 | AAAATTCATAAATACACACACGCACATATATATATA [CACACA_site4227] | 9.07
4 | CAAAAATAAAAGAAATGTACAAAAAATAATAAAAAA [XGTACX_site6597] | 6.69
5 | TATATGTAGATTAAACGTACTTACAACGGAATTATC [XGTACX_site3036] | 6.67
6 | TGCCATCATATCATAGGTACACAAACATATAAAGAA [XGTACX_site4137] | 7.05
7 | AAATGTTCAGAAACTATTATAAAAATGGAATAATAT [CACACA_negctrl_site1544] | 6.56
8 | GTATTATATTTTAATACACACCCAAATATTAAAAAG [CACACA_site8968] | 6.79
9 | TTATGCTCAAAGAAAAGTACATAAATAAAAGTATAT [XGTACX_site7365] | 7.62
10 | TTAACAAATAAATGCACACATATATATAAATAATAT [CACACA_site28] | 9.43
11 | CTTAATATGGATATTGCATGTAGAACATGAACAATA [TGCATGCA_site760] | 6.29
12 | TAAATATTATATTTATGTACATAAGTTTTTTTTAAT [XGTACX_site3559] | 6.53
13 | TATATCTATTTCAAATGTACTTATATGATTCTTATA [XGTACX_site6277] | 6.31
14 | AGCTACAAAAATTAATATATATATGTATAGTTATAC [TGCATGCA_negctrl_site531] | 6.25
15 | AGTTTAATTTTGTATACACACATTTGAATTATTAAT [CACACA_site7625] | 6.91
16 | AAATTACTGTAAAAAAGTACAGAAGTTCTTATTTTT [XGTACX_site7416] | 5.9
17 | GTTCATATAATAAAATGTACATAATATATTATATAT [XGTACX_site7623] | 6.4
18 | TAAAAGTTGAAGCACACACACAAAAGAAATACAATA [CACACA_site6649] | 7.21
19 | ATTGAGGCTGGTTATATAATAATTTTATTATTTTAG [GTGCAC_negctrl_site409] | 6.32
20 | ATATATTTATATTTTTGTACCCAAAATTGTTTGATG [XGTACX_site3581] | 6.45
21 | TATCTCCACAAAAGATGTACTCATATTAATTTATAA [XGTACX_site3535] | 6.02
22 | GTATACAACATATGAACACACAAAATATTTTTTTTT [CACACA_site2928] | 6.63

Row | Sequence | gcPBM binding intensity (ln)
23 | TTAAAGCTTGCATATACACACATACATAAATTCATA [CACACA_site7208] | 6.89
24 | TTTTTTTTTTTTTATTGTACATACTTTTAAATATAT [XGTACX_site4303] | 6.59
25 | GTATATAAATAAATAGTGCATTATTAAAAATAATGT | 9
26 | TATATAATATATTTATGTACTCACAATGGGGTCTAC [XGTACX_site2691] | 7
27 | ATAAATAAAGGACACACACACACACTAATAAAAAAA [CACACA_site8840] | 7.04
28 | TTTGTTATATTTAATACACACATATTATAAACACAT [CACACA_site7703] | 6.88
29 | TATGAAAAGTAAAGTACACACAGGAAAAAAAAAAAA [CACACA_site1749] | 6.48
30 | TAAACACCCATACATACACACATACATACACCCATA [CACACA_site5125] | 6.91
31 | TTCTTCAATATATTCTTACACACTTAAAAAAAAAAA [CACACA_site228] | 6.55
32 | ATATATATATATATATGTACATAATGCATATAATAT [XGTACX_site6142] | 9.28
33 | GAAGGAAAAGATACGATAAAATAAGATATTAATTTA [GTGCAC_negctrl_site419] | 6.01
34 | TTAATACTTTTTTCTGTACACACTTGATTTACTATA [CACACA_site2799] | 6.69
35 | TTTTTTTTTTATTGTACATGCAAAAAATTCCACACA [TGCATGCA_site279] | 6.47
36 | AGCATATTATTTTAGGTGCACTTGAAATGTGTTAAC | 9.32
37 | TTTAAATAAAATATTACACACTTAGAAAGATATATA [CACACA_site7684] | 6.06
38 | CAAATAAAAACAAAACGTACGAATAAATTATTGTTA [XGTACX_site5136] | 6.73
39 | ATATATAAAAATTAGGTGCATTAAATTAAAATATAT | 9.74
40 | CACATATAAATATTAACACACATAATGAATTATATA [CACACA_site2741] | 6.23
41 | TATTTGATCTAAAGAGCATGCAAAAACGAACAAGAT [TGCATGCA_site136] | 8.36
42 | ATATCGTTATTTTTATGTACTAAAATATTTAATTAT [XGTACX_site3516] | 7.03
43 | AAATTGGTTCATCAATGTACATGTAAAATAAATCAA [XGTACX_site4795] | 6.67
44 | TAATGAGGAAATACAGCACACGTTATTACACTTTTC [CACACA_site5399] | 6.45
